Results from paper PMC4336329 (PLoS ONE, 2015).
About 14,000 (4.5%) of roughly 310,000 compounds showed an effect of 50% or more. Effects have a minus sign here. The list shows a part of the results.

Molecular target: human ether-à-go-go-related gene (hERG) potassium channel (human, UniProt Q12809)
Test: primary screen, population patch clamp on CHO cells stably expressing hERG
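Also: peak tail current of the secondary pulse compared with the same well before compound.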

human ether-à-go-go-related gene (hERG) potassium channel, sequence (Q12809 whole entry, looked up): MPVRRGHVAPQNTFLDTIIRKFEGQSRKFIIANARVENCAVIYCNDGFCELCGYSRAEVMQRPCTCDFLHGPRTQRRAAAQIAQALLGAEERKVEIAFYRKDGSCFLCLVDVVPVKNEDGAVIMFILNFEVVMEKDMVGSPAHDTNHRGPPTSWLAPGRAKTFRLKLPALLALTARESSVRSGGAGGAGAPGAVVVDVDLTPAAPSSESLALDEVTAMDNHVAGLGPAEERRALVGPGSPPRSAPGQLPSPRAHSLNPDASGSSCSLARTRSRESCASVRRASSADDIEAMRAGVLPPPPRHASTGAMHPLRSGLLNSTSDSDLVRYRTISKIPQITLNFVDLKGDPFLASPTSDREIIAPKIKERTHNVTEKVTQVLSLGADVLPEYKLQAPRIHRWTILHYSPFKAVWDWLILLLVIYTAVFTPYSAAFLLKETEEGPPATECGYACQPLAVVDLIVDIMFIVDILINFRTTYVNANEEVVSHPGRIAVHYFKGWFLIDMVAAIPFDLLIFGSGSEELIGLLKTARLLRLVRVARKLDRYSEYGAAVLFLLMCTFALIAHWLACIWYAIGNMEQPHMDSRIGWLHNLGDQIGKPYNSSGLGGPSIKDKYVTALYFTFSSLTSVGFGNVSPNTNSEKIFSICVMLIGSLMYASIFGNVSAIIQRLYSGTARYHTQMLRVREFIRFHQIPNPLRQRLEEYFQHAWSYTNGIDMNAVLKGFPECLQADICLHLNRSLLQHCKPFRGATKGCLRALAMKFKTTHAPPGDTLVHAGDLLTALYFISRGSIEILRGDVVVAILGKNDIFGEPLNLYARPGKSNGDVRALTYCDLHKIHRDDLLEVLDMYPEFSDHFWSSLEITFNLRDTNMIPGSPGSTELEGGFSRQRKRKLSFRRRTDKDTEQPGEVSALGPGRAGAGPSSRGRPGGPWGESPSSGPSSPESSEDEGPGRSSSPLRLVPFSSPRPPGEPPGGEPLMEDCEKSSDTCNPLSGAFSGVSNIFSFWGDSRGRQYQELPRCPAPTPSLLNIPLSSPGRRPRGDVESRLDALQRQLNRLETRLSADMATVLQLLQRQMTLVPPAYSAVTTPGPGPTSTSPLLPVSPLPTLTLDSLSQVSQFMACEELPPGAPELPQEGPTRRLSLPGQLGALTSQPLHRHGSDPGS

| SMILES | hERG current change (%, negative = inhibition) at 10uM [%] |
| --- | --- |
| Cc1ccc(/C=N/NC(=O)c2nnn(-c3nonc3N)c2-c2cccs2)cc1 | 13.9 |
| CCN(CC)c1ccc(CNc2nc3ccccc3n2CC)cc1 | -23.5 |
| O=C(Nc1ccc(N2C(=O)CCC2=O)cc1Cl)c1cccs1 | 18.4 |
| C[n+]1c2n(c3ccccc31)N=C(c1ccc(-c3ccccc3)cc1)CS2.[Br-] | -79.7 |
| CCOC(=O)/C(=C/c1c(C)n(C)c2ccc([N+](=O)[O-])cc12)C(C)=O | -19.6 |
| CC1(C)CCC(=O)N(c2ccccc2)C1=O | 14.7 |
| O=C(Nc1ccncc1)c1ccc(Cl)c(Cl)c1 | -4.17 |
| CN(CC1COc2ccccc2O1)C(=O)CSc1ncnc2sccc12 (stereo not shown) | -43 |
| COc1cc(/C=C2/C(=O)N(C)C(=S)N2C)ccc1OCc1cccc(F)c1 | 16.3 |
| COc1ccc(C(=O)COC(=O)c2cc([N+](=O)[O-])ccc2N2CCOCC2)c(OC)c1 | -1.16 |
| CS(=O)(=O)N(CCC(=O)O)Cc1ccccc1 | -3.93 |
| O=[N+]([O-])c1ccc(N=Nc2c(Cl)cc(O)cc2Cl)cc1 | 18.2 |
| CCNC(=O)/C(C#N)=C/c1c(N2CCOCC2)nc2ccccn2c1=O | -4.68 |
| O=[N+]([O-])c1nn(-c2ccc(Cl)cc2)n(O)c1=NCc1cccnc1 | -3.26 |
| COc1cc(S(=O)(=O)NC2CCCC2)ccc1-n1cnnn1 | -3.76 |
| O=C(NC(=S)NCc1ccccc1)c1ccccc1[N+](=O)[O-] | 14.4 |
| COC(=O)C1=C(C)N(c2cc(C)cc(C)c2)/C(=C/c2ccco2)C1=O | 4.66 |
| Cc1ccc(OCC(=O)NC2CC(C)(C)NC(C)(C)C2)c(C)c1 | 1.36 |
| CCOc1ccc(NC(=O)N2CCN(CC)CC2)cc1 | 5.2 |
| Cc1ccc(-n2nc(C)c3c(C)cc(=O)[nH]c32)cc1 | -14.4 |
| C=CCn1c(C(C)NC(=O)c2ccc(C)cc2)n[nH]c1=S (stereo not shown) | 8.21 |
| COC(=O)Nc1ccc(C)cc1NC(=O)OC | 10.8 |
| COc1cccc(C(=O)Nc2sc(C(C)C)cc2C(N)=O)c1OC | -50.5 |

| SMILES | hERG current change (%, negative = inhibition) at 10uM [%] |
| --- | --- |
| Cc1noc(C)c1C(=O)NCc1ccccc1F | 25.7 |
| CC(=O)c1cccc(NC(=O)N2CCC(NC(=O)c3ccco3)CC2)c1 | -44.5 |
| Cc1cccc(OCCCn2c(CO)nc3ccccc32)c1 | -32.3 |
| CNC.Cc1cccn2c(NCC3CCCO3)c(C(C)C)nc12.Cl (stereo not shown) | -12.7 |
| CCc1ccc2[nH]c(=O)c(CN(Cc3ccc4c(c3)OCO4)Cc3nnnn3C3CCCC3)cc2c1 | -8.95 |
| Cc1cc(C)cc(C(N)=Nc2cccc(C#N)c2)c1 | -39.7 |
| Cc1ccc(C(=O)NNC2=Nc3cccc4cccc2c34)cc1 | 11.5 |
| CCOC(=O)c1ccc(S(=O)(=O)n2c(=O)oc3ccccc32)cc1 | 9.59 |
| COCCNc1nnc(SCC(=O)NNC(=O)c2ccc([N+](=O)[O-])cc2)s1 | -7.08 |
| O=C(OCc1ccc(Cl)cc1)c1cnccn1 | 7.58 |
| CCCC1(C)SC(NC(C)=O)=NN1C(C)=O (stereo not shown) | 0.971 |
| CCOc1ccc(NC(=O)CSc2nnc(-c3ccco3)n2C)cc1 | -36.1 |
| COCCSc1nnc(NC(=O)c2ccc(NC(C)=O)cc2)s1 | 21 |
| CCOC(=O)c1c(NC(=O)CSc2ncn[nH]2)sc(C(=O)N(C)C)c1C | -9 |
| O=C1NC(=Nc2ccccc2)/C(=C/c2ccco2)S1 | 12.4 |
| COc1ccc(N2C(=O)CC(N3CCN(c4cccc(Cl)c4)CC3)C2=O)cc1 (stereo not shown) | 8.31 |
| O=C(COC(=O)C1CC1)NCc1ccccc1Cl | 15.7 |
| COC(=O)c1ccc(Cl)c(NC(=O)CN(c2ccc3c(c2)OCO3)S(C)(=O)=O)c1 | 7.68 |
| Cc1ccc(NC(=O)[C@@H]2CCCN2S(=O)(=O)c2ccccc2F)cc1S(=O)(=O)N1CCOCC1 | -8.51 |
| COc1ccc(S(=O)(=O)N2CCN(CC(=O)c3ccc(O)c(O)c3)CC2)cc1 | -45 |
| Cc1ccc(/C(N)=N/OC(=O)c2cccs2)cc1 | 11.6 |
| CC1(C)COC(Cn2c3ccccc3c3ccccc32)O1 (stereo not shown) | 15.1 |
| CCNc1ncnc2c1cnn2C | 8.35 |

| SMILES | hERG current change (%, negative = inhibition) at 10uM [%] |
| --- | --- |
| c1ccc(Oc2cccc(NC3=NCCC3)c2)cc1 | -12.6 |
| Cc1ccc(CNC(=O)C2CCN(S(=O)(=O)c3cccc4nonc34)CC2)cc1 | 6.37 |
| Cc1cccc(C)c1NC(=O)CNC(=O)c1ccc(NS(=O)(=O)c2ccc3[nH]c(=O)[nH]c3c2)cc1 | 21.2 |
| O=C(NCC1CCCO1)C1c2ccccc2Oc2ccccc21 (stereo not shown) | 31.4 |
| CN(C)C(=O)c1ccc(NS(=O)(=O)c2ccc3c(c2)OCCO3)cc1 | 5.35 |
| O=C(NN1C(=O)/C(=C/c2ccc(O)cc2)SC1=S)c1cccc(O)c1 | 12.7 |
| COc1cccc(NC(=O)CSc2ncnc3c2cnn3Cc2ccccc2)c1 | -6.53 |
| CC(C)C(=O)Nc1ccc(C(=O)N/N=C/C2CC3C=CC2C3)cc1 (stereo not shown) | 21.1 |
| COCCCNC(=O)c1ccc(Cn2c(=O)c3ccccc3n(Cc3ccc(C)cc3)c2=O)cc1 | 6.54 |
| O=C(CNc1cc(S(=O)(=O)N2CCOCC2)ccc1NCC1CCCO1)Nc1ccc(C(F)(F)F)cc1 (stereo not shown) | -30.4 |
| O=C(c1ccco1)N1CCN(C(=O)C2CC(=O)N(c3ccccc3)C2)CC1 (stereo not shown) | -41.3 |
| O=C(NN1C(=O)C2C(c3ccccc3)C=CC(c3ccccc3)C2C1=O)c1ccncc1 (stereo not shown) | -13.9 |
| O=C1NC(=O)C2(CCCc3ccccc32)N1 (stereo not shown) | 12.8 |
| O=C(CSc1nnc(-c2ccc3c(c2)OCO3)o1)Nc1ncc(C(F)(F)F)cc1Cl | -5.3 |
| NC(=O)CSC1=Nc2ccccc2C2=NC(CCC(=O)NCc3ccc(F)cc3)C(=O)N12 (stereo not shown) | 15.1 |
| COCC1CCN(Cc2cn(Cc3ccccc3)nc2-c2cc3ccccc3o2)CC1 | -76.6 |
| CCOC(=O)c1ccccc1NC(=O)CSc1nc2ccccc2c(=O)[nH]1 | 30.1 |
| COc1nc(NC(C)=O)nc(C)c1Br | -1.69 |
| COc1ccccc1C(=O)COC(=O)CNS(=O)(=O)c1ccc(C)c(C)c1 | -10.9 |
| COCCCn1cnc2c(c1=O)c1nc3ccccc3nc1n2-c1ccccc1 | -56.6 |
| CCN(CC)S(=O)(=O)c1ccc(NC(=O)c2ccccn2)cc1 | 2.93 |
| CC(=O)Nc1ccc(Oc2cncc(Cl)c2)nc1 | 9.44 |
| CC(=O)Nc1ccc(N2C(=O)CSC2c2cccc(Br)c2)cc1 (stereo not shown) | 3.62 |

| SMILES | hERG current change (%, negative = inhibition) at 10uM [%] |
| --- | --- |
| Cc1cccc(N(CC(=O)NC(C)C)C(=O)CCC(=O)Nc2nccs2)c1 | 5.88 |
| Cc1c(N(C)C)c(=O)n(-c2ccccc2)n1C | 19.1 |
| O=C(NNc1nc2c(F)cc(F)cc2s1)C1=COCCO1 | 6.2 |
| O=C1OCC/C1=C\c1ccc2c(c1)OCO2 | 20.6 |
| O=C(CSc1nc2scc(-c3ccccc3)c2c(=O)[nH]1)NC1CCCCC1 | 16.6 |
| CCOc1ccccc1NC(=O)c1oc2ccccc2c1NC(=O)C1CC1 | 4.15 |
| C=CCNC(=O)C1CC=CCC1C(=O)O (stereo not shown) | 13.1 |
| CCn1c(C)c(C(C)=O)c(NCc2ccccc2)nc1=S | -4.97 |
| O=C(NCc1ccc(-n2cccc2)cc1)c1cccc(F)c1 | 14.1 |
| S=P(N1CC1)(N1CC1)N1CC1 | 13.6 |
| C/C=C(\C)C(=O)NCCN1C2=NC[C@@H](Cc3ccccc3)N2C[C@@H]1Cc1ccc(OC)cc1 | -60.3 |
| O=C1c2ccc3c4c(ccc(c24)C(=O)N1c1ccc(O)cc1)C(=O)N(c1ccc(O)cc1)C3=O | 23.3 |
| Cc1ccc2[nH]c(=O)c(CN(CC3COCCO3)C(=O)Nc3ccccc3F)cc2c1 (stereo not shown) | 2.41 |
| CCC(C)NC(=O)c1cc(S(=O)(=O)N2CCCCC2)c[nH]1 (stereo not shown) | 34 |
| CCOc1cc(N2CCOCC2)c(OCC)cc1NC(=O)c1cc(C)cc(C)c1 | 7.45 |
| CCCCNCc1cc(Br)c(OCc2cccs2)c(OC)c1.Cl | -33.7 |
| Cc1ccc(NC(=O)c2cc(=O)c3ccccc3o2)cc1 | 15.6 |
| CCCC12CN3CC(C)(CN(C1)C3c1cccs1)C2=O (stereo not shown) | -7.68 |
| NC(=O)C1CCN(c2ncc(C(F)(F)F)cc2Cl)CC1 | 8.42 |
| COc1cccc(OC)c1C(=O)OCC(=O)NCCCc1ccccc1 | -2.98 |
| COC(=O)C1=NN(N=O)C2(CC(=O)N(c3cc(C)cc(C)c3)C2=O)C1 (stereo not shown) | -3.76 |
| O=C1CC(=O)Nc2cc(S(=O)(=O)NCc3cccs3)ccc2N1 | 14.2 |
